# From the supplement of paper PMC8728848
# The list shows a part of the results.
# What was measured:
# Assay in all cases: glycan array binding signal (z-score within array); higher = stronger binding
# Details in all cases: glycan notation: IUPAC condensed, linker removed
# [1] = target: Neu5Ac(a2-3)Gal(b1-4)[Fuc(a1-3)]GlcNAc(b1-3)Gal
# How it was run: (§1)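 Glycan array data were curated from 3228 arrays in the Consortium for Functional Glycomics database and kept only where the protein sequence was available. Glycan names were converted to IUPAC-condensed notation, and columns mapping to the same glycan were averaged. The binding signal is a within-array Z-score, averaged across arrays of the same protein sequence at different concentrations or buffers and across linkers. Negative Z-scores can be read as non-binding.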
# [2] = target: Neu5Ac(a2-3)Gal(b1-4)[Fuc(a1-3)]GlcNAc(b1-3)Gal(b1-4)GlcNAc
# How it was run: as §1
# [3] = target: Neu5Ac(a2-3)Gal(b1-4)[Fuc(a1-3)]GlcNAc(b1-3)Gal(b1-4)[Fuc(a1-3)]GlcNAc(b1-3)Gal(b1-4)[Fuc(a1-3)]GlcNAc
# How it was run: as §1
# [4] = target: Neu5Ac(a2-3)Gal(b1-4)[Fuc(a1-3)]GlcNAc(b1-3)GalNAc
# How it was run: as §1
# [5] = target: Neu5Ac(a2-3)Gal(b1-4)[Fuc(a1-3)]GlcNAc(b1-6)[Gal(b1-3)]GalNAc
# How it was run: as §1
# [6] = target: Neu5Ac(a2-3)Gal(b1-4)[Fuc(a1-3)]GlcNAc(b1-6)[Neu5Ac(a2-3)Gal(b1-3)]GalNAc
# How it was run: as §1
# [7] = target: Neu5Ac(a2-3)Gal(b1-4)[Fuc(a1-3)]GlcNAc6S
# How it was run: as §1
# [8] = target: Neu5Ac(a2-3)Gal6S(b1-4)GlcNAc
# How it was run: as §1
# [9] = target: Neu5Ac(a2-3)Gal6S(b1-4)[Fuc(a1-3)]GlcNAc
# How it was run: as §1
# [10] = target: Neu5Ac(a2-3)GalNAc
# How it was run: as §1
# [11] = target: Neu5Ac(a2-3)GalNAc(b1-4)GlcNAc
# How it was run: as §1
# [12] = target: Neu5Ac(a2-3)[GalNAc(b1-4)]Gal(b1-4)Glc
# How it was run: as §1
# [13] = target: Neu5Ac(a2-3)[GalNAc(b1-4)]Gal(b1-4)GlcNAc
# How it was run: as §1
# [14] = target: Neu5Ac(a2-3)[GalNAc(b1-4)]Gal(b1-4)GlcNAc(b1-3)GalNAc
# How it was run: as §1
# [15] = target: Neu5Ac(a2-3)[Neu5Ac(a2-6)]GalNAc
# How it was run: as §1
# [16] = target: Neu5Ac(a2-6)Gal
# How it was run: as §1
# [17] = target: Neu5Ac(a2-6)Gal(b1-3)GlcNAc(b1-3)[Gal(b1-4)GlcNAc(b1-6)]Gal(b1-4)Glc
# How it was run: as §1
# [18] = target: Neu5Ac(a2-6)Gal(b1-4)Glc
# How it was run: as §1
# [19] = target: Neu5Ac(a2-6)Gal(b1-4)GlcNAc
# How it was run: as §1
# [20] = target: Neu5Ac(a2-6)Gal(b1-4)GlcNAc(b1-2)Man
# How it was run: as §1
# [21] = target: Neu5Ac(a2-6)Gal(b1-4)GlcNAc(b1-2)Man(a1-3)Man(b1-4)GlcNAc(b1-4)GlcNAc
# How it was run: as §1
# [22] = target: Neu5Ac(a2-6)Gal(b1-4)GlcNAc(b1-2)Man(a1-3)[Gal(b1-4)GlcNAc(b1-2)Man(a1-6)]Man(b1-4)GlcNAc(b1-4)GlcNAc
# How it was run: as §1
# [23] = target: Neu5Ac(a2-6)Gal(b1-4)GlcNAc(b1-2)Man(a1-3)[GlcNAc(b1-2)Man(a1-6)]Man(b1-4)GlcNAc(b1-4)GlcNAc
# How it was run: as §1
# [24] = target: Neu5Ac(a2-6)Gal(b1-4)GlcNAc(b1-2)Man(a1-3)[GlcNAc(b1-2)Man(b1-4)GlcNAc(b1-2)Man(a1-6)]Man(b1-4)GlcNAc(b1-4)GlcNAc
# How it was run: as §1
# [25] = target: Neu5Ac(a2-6)Gal(b1-4)GlcNAc(b1-2)Man(a1-3)[GlcNAc(b1-4)][Neu5Ac(a2-6)Gal(b1-4)GlcNAc(b1-2)Man(a1-6)]Man(b1-4)GlcNAc(b1-4)GlcNAc
# How it was run: as §1
# [26] = target: Neu5Ac(a2-6)Gal(b1-4)GlcNAc(b1-2)Man(a1-3)[Man(a1-6)]Man(b1-4)GlcNAc(b1-4)GlcNAc
# How it was run: as §1
# [27] = target: Neu5Ac(a2-6)Gal(b1-4)GlcNAc(b1-2)Man(a1-3)[Neu5Ac(a2-3)Gal(b1-4)GlcNAc(b1-2)Man(a1-6)]Man(b1-4)GlcNAc(b1-4)GlcNAc
# How it was run: as §1
# [28] = target: Neu5Ac(a2-6)Gal(b1-4)GlcNAc(b1-2)Man(a1-3)[Neu5Ac(a2-6)Gal(b1-4)GlcNAc(b1-2)Man(a1-6)]Man(b1-4)GlcNAc(b1-4)GlcNAc
# How it was run: as §1
# [29] = target: Neu5Ac(a2-6)Gal(b1-4)GlcNAc(b1-2)Man(a1-3)[Neu5Ac(a2-6)Gal(b1-4)GlcNAc(b1-2)Man(a1-6)]Man(b1-4)GlcNAc(b1-4)[Fuc(a1-6)]GlcNAc
# How it was run: as §1
# [30] = target: Neu5Ac(a2-6)Gal(b1-4)GlcNAc(b1-2)Man(a1-6)Man(b1-4)GlcNAc(b1-4)GlcNAc
# How it was run: as §1
# [31] = target: Neu5Ac(a2-6)Gal(b1-4)GlcNAc(b1-2)Man(a1-6)[Gal(b1-4)GlcNAc(b1-2)Man(a1-3)]Man(b1-4)GlcNAc(b1-4)GlcNAc
# How it was run: as §1
# [32] = target: Neu5Ac(a2-6)Gal(b1-4)GlcNAc(b1-2)Man(a1-6)[GlcNAc(b1-2)Man(a1-3)]Man(b1-4)GlcNAc(b1-4)GlcNAc
# How it was run: as §1
# [33] = target: Neu5Ac(a2-6)Gal(b1-4)GlcNAc(b1-2)Man(a1-6)[Man(a1-3)]Man(b1-4)GlcNAc(b1-4)GlcNAc
# How it was run: as §1
# [34] = target: Neu5Ac(a2-6)Gal(b1-4)GlcNAc(b1-2)[Neu5Ac(a2-6)Gal(b1-4)GlcNAc(b1-4)]Man(a1-3)[GlcNAc(b1-4)][Neu5Ac(a2-6)Gal(b1-4)GlcNAc(b1-2)[Neu5Ac(a2-6)Gal(b1-4)GlcNAc(b1-6)]Man(a1-6)]Man(b1-4)GlcNAc(b1-4)GlcNAc
# How it was run: as §1
# [35] = target: Neu5Ac(a2-6)Gal(b1-4)GlcNAc(b1-2)[Neu5Ac(a2-6)Gal(b1-4)GlcNAc(b1-4)]Man(a1-3)[GlcNAc(b1-4)][Neu5Ac(a2-6)Gal(b1-4)GlcNAc(b1-4)Man(a1-6)]Man(b1-4)GlcNAc(b1-4)GlcNAc
# How it was run: as §1
# [36] = target: Neu5Ac(a2-6)Gal(b1-4)GlcNAc(b1-2)[Neu5Ac(a2-6)Gal(b1-4)GlcNAc(b1-6)]Man(a1-6)[Neu5Ac(a2-6)Gal(b1-4)GlcNAc(b1-2)Man(a1-3)][GlcNAc(b1-4)]Man(b1-4)GlcNAc(b1-4)GlcNAc
# How it was run: as §1
# [37] = target: Neu5Ac(a2-6)Gal(b1-4)GlcNAc(b1-3)Gal(b1-3)GlcNAc
# How it was run: as §1
# [38] = target: Neu5Ac(a2-6)Gal(b1-4)GlcNAc(b1-3)Gal(b1-4)GlcNAc
# How it was run: as §1
# [39] = target: Neu5Ac(a2-6)Gal(b1-4)GlcNAc(b1-3)Gal(b1-4)GlcNAc(b1-2)Man(a1-3)[Neu5Ac(a2-6)Gal(b1-4)GlcNAc(b1-3)Gal(b1-4)GlcNAc(b1-2)Man(a1-6)]GalNAc
# How it was run: as §1
# [40] = target: Neu5Ac(a2-6)Gal(b1-4)GlcNAc(b1-3)Gal(b1-4)GlcNAc(b1-3)Gal(b1-4)GlcNAc
# How it was run: as §1
# [41] = target: Neu5Ac(a2-6)Gal(b1-4)GlcNAc(b1-3)Gal(b1-4)GlcNAc(b1-3)Gal(b1-4)GlcNAc(b1-2)Man(a1-3)[Neu5Ac(a2-6)Gal(b1-4)GlcNAc(b1-3)Gal(b1-4)GlcNAc(b1-3)Gal(b1-4)GlcNAc(b1-2)Man(a1-6)]GalNAc
# How it was run: as §1
# [42] = target: Neu5Ac(a2-6)Gal(b1-4)GlcNAc(b1-3)Gal(b1-4)GlcNAc(b1-3)GalNAc
# How it was run: as §1
# [43] = target: Neu5Ac(a2-6)Gal(b1-4)GlcNAc(b1-3)Gal(b1-4)GlcNAc(b1-3)[Neu5Ac(a2-6)Gal(b1-4)GlcNAc(b1-3)Gal(b1-4)GlcNAc(b1-6)]GalNAc
# How it was run: as §1
# [44] = target: Neu5Ac(a2-6)Gal(b1-4)GlcNAc(b1-3)Gal(b1-4)GlcNAc(b1-6)[Gal(b1-3)]GalNAc
# How it was run: as §1
binder,measurement,setting,value
"HPA (Helix pomatia), Q2F1K8 (protein) MQAFYSGLLLLCVVAFAAAQRVQSGKIDCGNDAGWAKVPSDDPGRDNTRELAKNITFASPYCRPPVVLLSITQLDVEQSQNLRVIARLYSVSPTGFKASCYTWHNTKVYSMSISWISIENY",glycan array binding signal (z-score),[1],-0.334
same,glycan array binding signal (z-score),[2],0.04
same,glycan array binding signal (z-score),[3],-0.013
same,glycan array binding signal (z-score),[4],0.037
same,glycan array binding signal (z-score),[5],0.461
same,glycan array binding signal (z-score),[6],0.492
same,glycan array binding signal (z-score),[7],-0.308
same,glycan array binding signal (z-score),[8],-0.242
same,glycan array binding signal (z-score),[9],-0.329
same,glycan array binding signal (z-score),[10],-0.277
same,glycan array binding signal (z-score),[11],-0.242
same,glycan array binding signal (z-score),[12],-0.193
same,glycan array binding signal (z-score),[13],-0.296
same,glycan array binding signal (z-score),[14],0.393
same,glycan array binding signal (z-score),[15],-0.294
same,glycan array binding signal (z-score),[16],-0.152
same,glycan array binding signal (z-score),[17],-0.2
same,glycan array binding signal (z-score),[18],-0.136
same,glycan array binding signal (z-score),[19],-0.28
same,glycan array binding signal (z-score),[20],-0.191
same,glycan array binding signal (z-score),[21],-0.265
same,glycan array binding signal (z-score),[22],-0.26
same,glycan array binding signal (z-score),[23],-0.278
same,glycan array binding signal (z-score),[24],-0.017
same,glycan array binding signal (z-score),[25],-0.345
same,glycan array binding signal (z-score),[26],-0.129
same,glycan array binding signal (z-score),[27],-0.229
same,glycan array binding signal (z-score),[28],-0.241
same,glycan array binding signal (z-score),[29],0.309
same,glycan array binding signal (z-score),[30],-0.34
same,glycan array binding signal (z-score),[31],1.23
same,glycan array binding signal (z-score),[32],-0.157
same,glycan array binding signal (z-score),[33],-0.235
same,glycan array binding signal (z-score),[34],-0.317
same,glycan array binding signal (z-score),[35],-0.129
same,glycan array binding signal (z-score),[36],-0.421
same,glycan array binding signal (z-score),[37],-0.349
same,glycan array binding signal (z-score),[38],-0.244
same,glycan array binding signal (z-score),[39],0.201
same,glycan array binding signal (z-score),[40],-0.189
same,glycan array binding signal (z-score),[41],0.579
same,glycan array binding signal (z-score),[42],-0.436
same,glycan array binding signal (z-score),[43],0.886
same,glycan array binding signal (z-score),[44],0.021
